# Test results: the antibiotic and cytotoxicity screens of Wong et al. (2023)
# The list shows a part of the results.
# Key:
# [1] = test system: HSkMC (human skeletal muscle cells); experiment: cytotoxicity call (relative viability < 0.9); conditions: 10 µM
# [2] = test system: HepG2; experiment: cytotoxicity call (relative viability < 0.9); conditions: 10 µM
# [3] = test system: S. aureus RN4220; experiment: growth inhibition call (relative growth <= 0.2); conditions: 50 µM
Compound,cytotoxicity call [1],cytotoxicity call [2],growth inhibition call [3]
Cc1noc(C)c1S(=O)(=O)N(C)C[C@@H]1Oc2ccc(NC(=O)C3CCCCC3)cc2CC(=O)N([C@@H](C)CO)C[C@H]1C,inactive,inactive,inactive
C[C@H](CO)N1C[C@H](C)[C@H](CN(C)C(=O)Nc2ccccc2)OCCCC[C@H](C)Oc2ccc(NC(=O)Cc3ccccc3)cc2C1=O,inactive,inactive,inactive
C[C@H](CO)N1C[C@H](C)[C@@H](CN(C)C(=O)Nc2ccc3c(c2)OCO3)Oc2cc(C#Cc3cccnc3)ccc2S1(=O)=O,inactive,inactive,inactive
C[C@@H]1CCCCO[C@H](CN(C)C(=O)Cc2ccccc2)[C@H](C)CN([C@@H](C)CO)C(=O)c2cc(NS(=O)(=O)c3ccc(Cl)cc3)ccc2O1,inactive,inactive,inactive
Cc1ccc(S(=O)(=O)N2C[C@H](O)COC[C@@H]3O[C@@H](CC(=O)N[C@H]4CCN(Cc5ccccc5)C4)CC[C@H]32)cc1,inactive,inactive,inactive
C[C@@H]1CN([C@@H](C)CO)S(=O)(=O)c2ccc(C3=CCCCC3)cc2O[C@@H]1CN(C)C(=O)C1CCOCC1,inactive,inactive,inactive
C[C@@H]1CN([C@H](C)CO)C(=O)CCCn2nncc2CO[C@@H]1CN(C)C(=O)Nc1ccccc1C(F)(F)F,inactive,inactive,inactive
C[C@@H]1CCCCO[C@H](CN(C)Cc2ccc(C(F)(F)F)cc2)[C@H](C)CN([C@@H](C)CO)C(=O)c2cc(NC(=O)C3CCCCC3)ccc2O1,inactive,active,inactive
C[C@H]1CN([C@@H](C)CO)C(=O)c2cccc(NS(=O)(=O)c3ccccc3)c2O[C@H]1CN(C)S(=O)(=O)c1cn(C)cn1,inactive,inactive,inactive
C[C@@H]1CN([C@H](C)CO)C(=O)CCCn2nncc2CO[C@H]1CN(C)C(=O)C1CC1,inactive,inactive,inactive
CC(=O)NCCCS(=O)(=O)O,inactive,inactive,inactive
O=C(C[C@@H]1C=C[C@@H](NC(=O)c2cccc(F)c2)[C@H](CO)O1)NCCN1CCCC1,inactive,inactive,inactive
Cc1ccc(S(=O)(=O)Nc2ccc3c(c2)C(=O)N([C@H](C)CO)C[C@@H](C)[C@H](CN(C)C(=O)NC(C)C)O3)cc1,inactive,inactive,inactive
C[C@@H]1CN([C@H](C)CO)C(=O)c2cccc(NC(=O)c3cnccn3)c2O[C@@H]1CN(C)C(=O)Nc1ccccc1,inactive,inactive,inactive
CN(C)CC(=O)N[C@H]1C=C[C@@H](CC(=O)NCCN2CCCCC2)O[C@@H]1CO,inactive,active,inactive
C[C@@H]1CCCCO[C@@H](CN(C)C(=O)c2ccncc2)[C@@H](C)CN([C@@H](C)CO)C(=O)c2cc(NC(=O)C3CCCCC3)ccc2O1,inactive,inactive,inactive
Cc1ccc(S(=O)(=O)N[C@@H](Cc2ccccc2)C(=O)NCCCn2cc(-c3ccc(C(=O)NO)s3)nn2)cc1,inactive,inactive,inactive
Cc1ccc(S[C@]2(C(=O)NCCCN(C)C)CC(=O)N(C3Cc4ccccc4C3)[C@@H]2c2ccc(CO)cc2I)cc1,inactive,inactive,inactive
C[C@@H]1CN([C@@H](C)CO)C(=O)c2cc(NC(=O)CCC(F)(F)F)ccc2O[C@@H](C)CCCCO[C@H]1CN(C)C(=O)C1CCCCC1,inactive,inactive,inactive

Compound,cytotoxicity call [1],cytotoxicity call [2],growth inhibition call [3]
Cc1noc(C)c1NC(=O)Nc1ccc2c(c1)C(=O)N([C@H](C)CO)C[C@@H](C)[C@H](CN(C)Cc1ccccc1)OCCCC[C@@H](C)O2,inactive,inactive,inactive
CO[C@@]1(CNS(C)(=O)=O)CCSC1,inactive,inactive,inactive
COc1ccc(C#Cc2ccc3c(c2)O[C@@H](CN(C)C(C)=O)[C@H](C)CN([C@H](C)CO)S3(=O)=O)cc1,inactive,inactive,inactive
C[C@H]1CN([C@@H](C)CO)C(=O)Cc2cc(NC(=O)CCC(F)(F)F)ccc2O[C@H]1CN(C)Cc1ccc(-c2ccccc2)cc1,inactive,active,inactive
C[C@@H]1CN([C@H](C)CO)C(=O)c2cccc(NC(=O)C3CC3)c2O[C@@H]1CN(C)S(=O)(=O)c1ccc(Cl)cc1,inactive,inactive,inactive
CCN(CC)CCNc1ccc(COc2cccc(/C=C(C)/C=C/C(=O)NO)c2)c2sc3ccccc3c(=O)c12,inactive,inactive,inactive
COc1cccc(NC(=O)N2C[C@@H](O)COC[C@@H]3O[C@H](CC(=O)NC4Cc5ccccc5C4)CC[C@H]32)c1,inactive,inactive,inactive
Cc1ccc(S(=O)(=O)N(C)C[C@@H]2Oc3ccc(NC(=O)Cn4cnnn4)cc3C(=O)N([C@H](C)CO)C[C@H]2C)cc1,inactive,inactive,inactive
COc1ccc(NC(=O)N(C)C[C@H]2Oc3c(NC(=O)CCCCCC(=O)Nc4ccccc4N)cccc3C(=O)N([C@H](C)CO)C[C@H]2C)cc1,inactive,inactive,inactive
COc1ccc(S(=O)(=O)N2CC(NC(=O)Cn3ccc(=O)n(C)c3=O)C2)cc1,inactive,inactive,inactive
COc1cccc(C#Cc2ccc3c(c2)O[C@@H](CN(C)S(=O)(=O)c2ccccc2F)[C@H](C)CN([C@H](C)CO)S3(=O)=O)c1,inactive,inactive,inactive
C[C@H]1CN([C@@H](C)CO)C(=O)Cc2cc(NC(=O)Nc3ccc(C(F)(F)F)cc3)ccc2O[C@@H]1CN(C)Cc1ccc(C(F)(F)F)cc1,active,inactive,inactive
C[C@H](CO)N1C[C@H](C)[C@H](CN(C)C(=O)Nc2cccc(C(F)(F)F)c2)OCc2ccccc2-c2ccccc2C1=O,inactive,inactive,inactive
O=C(C[C@@H]1CC[C@H](NS(=O)(=O)c2ccc(F)cc2)[C@H](CO)O1)NCc1ccc(Cl)c(Cl)c1,inactive,inactive,inactive
Cc1noc(C)c1NC(=O)N[C@@H]1C=C[C@H](CC(=O)N2CCN(C)CC2)O[C@@H]1CO,inactive,inactive,inactive
COc1ccc(NC(=O)N(C)C[C@H]2OCCCC[C@H](C)Oc3ccc(NC(=O)Nc4cccc5ccccc45)cc3C(=O)N([C@H](C)CO)C[C@H]2C)cc1,inactive,inactive,inactive
C[C@@H]1CN([C@H](C)CO)C(=O)c2cc(NC(=O)Nc3cccc4ccccc34)ccc2O[C@@H]1CN(C)S(=O)(=O)c1ccccc1,inactive,inactive,inactive
Cc1ccc(S[C@]2(C(=O)NC3CC3)CC(=O)N(Cc3ccccc3C(F)(F)F)[C@@H]2c2ccc(CO)cc2)cc1,inactive,inactive,inactive
C[C@@H]1CCCCO[C@H](CN(C)Cc2ccc3c(c2)OCO3)[C@@H](C)CN([C@H](C)CO)C(=O)c2cc(NS(=O)(=O)c3cccs3)ccc2O1,inactive,inactive,inactive

Compound,cytotoxicity call [1],cytotoxicity call [2],growth inhibition call [3]
N#Cc1ccc(-c2ccccc2)cn1,inactive,inactive,inactive
C[C@H](CO)N1C[C@H](C)[C@H](CN(C)C(=O)Cc2ccncc2)Oc2cc(C#CC3CC3)ccc2S1(=O)=O,inactive,inactive,inactive
C[C@@H]1CCCCO[C@@H](CN(C)C(=O)CCCN(C)C)[C@@H](C)CN([C@H](C)CO)C(=O)c2cc(NC(=O)Nc3cccc4ccccc34)ccc2O1,inactive,inactive,inactive
Cc1cccc([C@@H](N)c2nccn2C)c1,inactive,inactive,inactive
C[C@@H]1CN([C@H](C)CO)C(=O)c2cccc(NC(=O)CCCCCC(=O)Nc3ccccc3N)c2O[C@@H]1CN(C)S(C)(=O)=O,inactive,inactive,inactive
C[C@@H]1CN([C@H](C)CO)C(=O)Cc2cc(NS(=O)(=O)c3cn(C)cn3)ccc2O[C@H]1CN(C)CC1CCCCC1,inactive,inactive,inactive
C[C@H](CO)N1C[C@H](C)[C@H](CN(C)Cc2ccc(-c3ccccc3)cc2)Oc2ccc(NC(=O)C3CCCCC3)cc2CC1=O,inactive,inactive,inactive
COc1ccc(-c2cnc3c(c2)C(=O)N([C@H](C)CO)C[C@H](C)[C@H](CN(C)C(=O)Nc2cccc4ccccc24)O3)cc1,inactive,inactive,inactive
CC(C)C#Cc1cnc2c(c1)C(=O)N([C@H](C)CO)C[C@H](C)[C@H](CN(C)C(=O)c1ccc3c(c1)OCO3)O2,inactive,inactive,inactive
C1COC[C@H](c2nn[nH]n2)N1,inactive,inactive,inactive
Cc1noc(C)c1NC(=O)N(C)C[C@@H]1OCCCC[C@H](C)Oc2ccc(NS(=O)(=O)c3cccs3)cc2C(=O)N([C@H](C)CO)C[C@@H]1C,inactive,inactive,inactive
O=C(C[C@H]1CC[C@@H]2[C@H](COC[C@@H](O)CN2S(=O)(=O)c2ccc(Cl)cc2)O1)N[C@H]1CCN(Cc2ccccc2)C1,inactive,inactive,inactive
Cc1ccc(S(=O)(=O)N(C)C[C@H]2OCCCC[C@@H](C)Oc3ccc(NC(=O)NC4CCCCC4)cc3C(=O)N([C@H](C)CO)C[C@@H]2C)cc1,inactive,inactive,inactive
CN(C)CCOC(=O)C(c1ccccc1)C1(O)CCCC1.Cl (stereo not drawn),inactive,inactive,inactive
Cc1noc(C)c1NC(=O)Nc1ccc2c(c1)C(=O)N([C@H](C)CO)C[C@@H](C)[C@H](CN(C)S(=O)(=O)c1ccc(Cl)cc1)OCCCC[C@H](C)O2,inactive,inactive,inactive
Cc1[nH]c(=O)c(C(=O)O)c2c1CCC2,inactive,inactive,inactive
C[C@H](CO)N1C[C@H](C)[C@@H](CN(C)Cc2ccc(C(F)(F)F)cc2)OCc2ccccc2-c2c(n(C)c3ccccc23)C1=O,inactive,inactive,inactive
C=CCC[C@@H](Cc1ccc(F)cc1)C(=O)OC[C@H](Cc1c[nH]c2ccccc12)NC(=O)[C@@H](CC=C)CC(=O)N[C@H](CO)Cc1ccccc1,inactive,inactive,inactive
